# Reference: the supplement of paper PMC8728848
# The other results are listed elsewhere or left out.
# B1: Clec2 (Mus musculus), Q9JL99 (protein)
# chain: MQDEDGYITLNIKPRKQALSSAEPASSWWRVMALVLLISSMGLVVGLVALGIMSVTQQKYLLAEKENLSATLQQLAKKFCQELIRQSEIKTKSTFEHKCSPCATKWRYHGDSCYGFFRRNLTWEESKQYCTEQNATLVKTASQSTLDYIAERITSVRWIGLSRQNSKKDWMWEDSSVLRKNGINLSGNTEENMNCAYLHNGKIHPASCKERHYLICERNAGMTRVDQLL
# How the values were obtained:
# Assay in all cases: glycan array binding signal (z-score within array); higher = stronger binding
# Conditions in all cases: glycan notation: IUPAC condensed, linker removed
# [1] = biological target: Neu5Ac(a2-6)Gal(b1-4)GlcNAc(b1-6)[Gal(b1-3)GlcNAc(b1-3)]Gal(b1-4)Glc
# Summary of the method: (§1)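 Glycan array data came from 3228 arrays in the Consortium for Functional Glycomics database, and only arrays with an available protein sequence were kept. Glycan names were put into IUPAC-condensed notation, and columns mapping to the same glycan were averaged. The binding signal is a within-array Z-score, averaged across arrays of one protein sequence run at different concentrations or buffers and across linkers. A negative Z-score can be read as non-binding.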
# [2] = biological target: Neu5Ac(a2-6)Gal(b1-4)GlcNAc(b1-6)[Gal(b1-3)]GalNAc
# Summary of the method: as §1
# [3] = biological target: Neu5Ac(a2-6)Gal(b1-4)GlcNAc6S
# Summary of the method: as §1
# [4] = biological target: Neu5Ac(a2-6)GalNAc
# Summary of the method: as §1
# [5] = biological target: Neu5Ac(a2-6)GalNAc(b1-4)GlcNAc
# Summary of the method: as §1
# [6] = biological target: Neu5Ac(a2-6)GalNAc(b1-4)GlcNAc6S
# Summary of the method: as §1
# [7] = biological target: Neu5Ac(a2-6)GlcNAc(b1-4)GlcNAc
# Summary of the method: as §1
# [8] = biological target: Neu5Ac(a2-6)GlcNAc(b1-4)GlcNAc(b1-4)GlcNAc
# Summary of the method: as §1
# [9] = biological target: Neu5Ac(a2-8)Neu5Ac
# Summary of the method: as §1
# [10] = biological target: Neu5Ac(a2-8)Neu5Ac(a2-3)Gal(b1-3)GalNAc(b1-4)[Neu5Ac(a2-3)]Gal(b1-4)Glc
# Summary of the method: as §1
# [11] = biological target: Neu5Ac(a2-8)Neu5Ac(a2-3)Gal(b1-3)GalNAc(b1-4)[Neu5Ac(a2-8)Neu5Ac(a2-3)]Gal(b1-4)Glc
# Summary of the method: as §1
# [12] = biological target: Neu5Ac(a2-8)Neu5Ac(a2-3)Gal(b1-4)Glc
# Summary of the method: as §1
# [13] = biological target: Neu5Ac(a2-8)Neu5Ac(a2-3)Gal(b1-4)GlcNAc
# Summary of the method: as §1
# [14] = biological target: Neu5Ac(a2-8)Neu5Ac(a2-3)[Gal(b1-3)GalNAc(b1-4)]Gal(b1-4)Glc
# Summary of the method: as §1
# [15] = biological target: Neu5Ac(a2-8)Neu5Ac(a2-3)[GalNAc(b1-4)]Gal(b1-4)Glc
# Summary of the method: as §1
# [16] = biological target: Neu5Ac(a2-8)Neu5Ac(a2-8)Neu5Ac
# Summary of the method: as §1
# [17] = biological target: Neu5Ac(a2-8)Neu5Ac(a2-8)Neu5Ac(a2-3)Gal(b1-4)Glc
# Summary of the method: as §1
# [18] = biological target: Neu5Ac(a2-8)Neu5Ac(a2-8)Neu5Ac(a2-3)[Gal(b1-3)GalNAc(b1-4)]Gal(b1-4)Glc
# Summary of the method: as §1
# [19] = biological target: Neu5Ac(a2-8)Neu5Ac(a2-8)Neu5Ac(a2-3)[GalNAc(b1-4)]Gal(b1-4)Glc
# Summary of the method: as §1
# [20] = biological target: Neu5Ac(a2-8)Neu5Ac(a2-8)Neu5Ac(a2-8)Neu5Ac(a2-3)[GalNAc(b1-4)]Gal(b1-4)Glc
# Summary of the method: as §1
# [21] = biological target: Neu5Ac(a2-8)Neu5Gc(a2-3)Gal(b1-4)GlcNAc
# Summary of the method: as §1
# [22] = biological target: Neu5Ac(b2-6)Gal(b1-4)GlcNAc
# Summary of the method: as §1
# [23] = biological target: Neu5Ac(b2-6)GalNAc
# Summary of the method: as §1
# [24] = biological target: Neu5Ac9Ac(a2-3)Gal(b1-3)GlcNAc
# Summary of the method: as §1
# [25] = biological target: Neu5Ac9Ac(a2-3)Gal(b1-4)GlcNAc
# Summary of the method: as §1
# [26] = biological target: Neu5Ac9Ac(a2-6)Gal(b1-4)GlcNAc
# Summary of the method: as §1
# [27] = biological target: Neu5Gc(a2-3)Gal(b1-3)GlcNAc
# Summary of the method: as §1
# [28] = biological target: Neu5Gc(a2-3)Gal(b1-3)[Fuc(a1-4)]GlcNAc
# Summary of the method: as §1
# [29] = biological target: Neu5Gc(a2-3)Gal(b1-4)Glc
# Summary of the method: as §1
# [30] = biological target: Neu5Gc(a2-3)Gal(b1-4)GlcNAc
# Summary of the method: as §1
# [31] = biological target: Neu5Gc(a2-3)Gal(b1-4)GlcNAc(b1-3)Gal(b1-4)GlcNAc(b1-2)Man(a1-3)[Neu5Gc(a2-3)Gal(b1-4)GlcNAc(b1-3)Gal(b1-4)GlcNAc(b1-2)Man(a1-6)]Man(b1-4)GlcNAc(b1-4)GlcNAc
# Summary of the method: as §1
# [32] = biological target: Neu5Gc(a2-3)Gal(b1-4)[Fuc(a1-3)]GlcNAc
# Summary of the method: as §1
# [33] = biological target: Neu5Gc(a2-6)Gal(b1-4)GlcNAc
# Summary of the method: as §1
# [34] = biological target: Neu5Gc(a2-6)GalNAc
# Summary of the method: as §1
# [35] = biological target: Neu5Gc(a2-8)Neu5Ac(a2-3)Gal(b1-4)GlcNAc
# Summary of the method: as §1
# [36] = biological target: Neu5Gc(a2-8)Neu5Gc(a2-3)Gal(b1-4)GlcNAc
# Summary of the method: as §1
# [37] = biological target: Neu5Gc(a2-8)Neu5Gc(a2-3)Gal(b1-4)GlcNAc(b1-3)Gal(b1-4)GlcNAc
# Summary of the method: as §1
# [38] = biological target: Neu5Gc(a2-8)Neu5Gc(a2-6)Gal(b1-4)GlcNAc
# Summary of the method: as §1
# [39] = biological target: Neu5Gc(b2-6)Gal(b1-4)GlcNAc
# Summary of the method: as §1
binder,measurement,setting,value
B1,glycan array binding signal (z-score),[1],-0.654
same,glycan array binding signal (z-score),[2],-0.259
same,glycan array binding signal (z-score),[3],2.24
same,glycan array binding signal (z-score),[4],0.012
same,glycan array binding signal (z-score),[5],-0.445
same,glycan array binding signal (z-score),[6],0.775
same,glycan array binding signal (z-score),[7],-0.572
same,glycan array binding signal (z-score),[8],-1.13
same,glycan array binding signal (z-score),[9],0.004
same,glycan array binding signal (z-score),[10],-0.592
same,glycan array binding signal (z-score),[11],0.041
same,glycan array binding signal (z-score),[12],-0.068
same,glycan array binding signal (z-score),[13],-0.653
same,glycan array binding signal (z-score),[14],-0.245
same,glycan array binding signal (z-score),[15],-0.022
same,glycan array binding signal (z-score),[16],-0.471
same,glycan array binding signal (z-score),[17],-0.316
same,glycan array binding signal (z-score),[18],-0.456
same,glycan array binding signal (z-score),[19],-0.269
same,glycan array binding signal (z-score),[20],-0.202
same,glycan array binding signal (z-score),[21],-0.442
same,glycan array binding signal (z-score),[22],0.023
same,glycan array binding signal (z-score),[23],-0.171
same,glycan array binding signal (z-score),[24],0.778
same,glycan array binding signal (z-score),[25],-0.553
same,glycan array binding signal (z-score),[26],-0.518
same,glycan array binding signal (z-score),[27],-0.366
same,glycan array binding signal (z-score),[28],0.119
same,glycan array binding signal (z-score),[29],-0.112
same,glycan array binding signal (z-score),[30],-0.657
same,glycan array binding signal (z-score),[31],-0.189
same,glycan array binding signal (z-score),[32],0.278
same,glycan array binding signal (z-score),[33],-0.494
same,glycan array binding signal (z-score),[34],-0.517
same,glycan array binding signal (z-score),[35],-0.442
same,glycan array binding signal (z-score),[36],-0.501
same,glycan array binding signal (z-score),[37],-0.34
same,glycan array binding signal (z-score),[38],-0.121
same,glycan array binding signal (z-score),[39],0.19
